Results taken from the supplement of paper PMC3334620.
Whole data set: some 33,000 sequences, median “E-score (-0.5 to 0.5)” near -0.017, cut for the highest 2% near 0.3. This is one part of the list.

What follows are sequences tested against T1, Sut1 (UniProt P53032) (assay: PBM E-score (8-mer binding enrichment) (E-score (-0.5 to 0.5)); higher = stronger / more preferred TF binding; most listed sequences are background and not binding sites). Details: protein concentration: 200 nM; construct: GST-full length.
T1 sequence: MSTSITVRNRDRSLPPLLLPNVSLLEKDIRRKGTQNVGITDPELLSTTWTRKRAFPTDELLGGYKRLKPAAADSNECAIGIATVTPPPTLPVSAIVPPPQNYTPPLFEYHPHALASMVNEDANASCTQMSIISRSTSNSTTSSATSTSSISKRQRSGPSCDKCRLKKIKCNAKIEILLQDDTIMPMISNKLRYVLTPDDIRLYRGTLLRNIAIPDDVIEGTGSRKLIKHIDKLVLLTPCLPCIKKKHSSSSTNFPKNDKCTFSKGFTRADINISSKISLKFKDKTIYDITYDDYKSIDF
How it was run: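 Using PURExpress in vitro transcription/translation, GST-tagged yeast transcription factors were made in full-length or DNA-binding-domain form. These were applied at about 100-200 nM to double-stranded universal all-10-mer Agilent arrays, and bound protein was detected with fluorescent anti-GST. Scans were normalised with masliner before the Universal PBM Analysis Suite assigned E-scores to ungapped eight-base words pooled with their reverse complements.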

Sequence	PBM E-score
AGACTGAT	0.102
CACTCTGC	-0.141
CGGGGGCC	-0.195
GTCCGTGA	0.251
CGTCAAGC	-0.125
TCGGCTCA	-0.14
GCCATGGA	-0.198
GAGTACGA	0.14
GCAGTATA	-0.0237
CGTCGCGA	-0.0743
ACCTGGCT	-0.17
AACATGAC	0.165
TATCGGAA	0.26
CTAGCGAC	-0.124
AATCCCAG	0.0474
GTGCCCTA	-0.31
GTCGCTTA	-0.0152
AGTCCATC	-0.129
GTCTTTAA	-0.00514
CCGTATAG	0.0391
ATTTTATG	0.13
CTACGTGC	-0.0843
AGACATAA	0.102
GCAGAAGA	-0.157
CCAGTACG	-0.115

Sequence	PBM E-score
AGTCTGAG	-0.247
ATCGCGGG	-0.128
AGTTAAGG	0.00162
ACATAGCA	0.0804
TAGGAATA	0.0527
ACTGCTCG	-0.0729
CTATTTAA	0.188
AGTCAGGA	-0.169
TCGAGAAA	0.103
AGGGAAGC	-0.113
GCGGGGAA	-0.0681
GAAGGCCC	-0.157
CCTTCCCG	-0.188
AGAAAAAG	0.138
CTGCCAAG	-0.0803
CGGGCCGA	-0.172
TTCAAGAA	0.252
TCCTAGCA	-0.0531
CCGAATGC	0.0646
GGTTGTAA	0.188
AACTGGGT	-0.126
ACCTTCCG	0.12
AAATGCCC	-0.199
ACGATTTG	0.124
CTATTAGC	0.157

Sequence	PBM E-score
CGTCTGAA	-0.0662
CTGGCTTA	-0.205
GGTTCGCA	-0.0674
AATTTTAA	0.295
ATTAAATG	0.243
GCGGTGCA	-0.175
ATAGCCAA	0.109
AATGAGTA	0.242
GGTAAAGA	0.161
CTGTACCC	0.0146
CACTGGAG	-0.349
AGGAGCCT	-0.0746
ACAGCGTC	0.0103
ATCAGCAG	-0.0924
CGGACGCC	-0.0182
GCTTGGGA	-0.258
ACATCCGG	0.132
GGATGGAA	-0.00982
AATGGCCT	0.0835
ATTTAATC	0.307
TTCCGAAA	0.291
CCAAGTTA	0.0242
TAAGTACA	0.111
ATCATAAA	0.0553
GGGTCCAA	-0.156

Sequence	PBM E-score
GGAATAAA	0.189
CGGACCTA	0.42
ACACTCCC	-0.0227
CATTTTCA	0.161
GGTCCGTA	0.253
CAGGAATA	0.0329
ATAGACTC	-0.125
CAACCTTA	-0.0348
CAGACTAC	-0.19
CTTAATTA	0.0362
CAAGCCAA	-0.059
GAGTAGCA	0.0747
TAGTCCAA	-0.01
AGGCCTGG	-0.227
ACACAGCG	0.0219
CGTTCCAC	-0.126
ACATACGA	0.117
ATGTTTGC	-0.0518
TCGTTCCA	-0.0676
ATTAAAGA	0.311
ACATCGTA	0.00487
AGTACTGG	-0.186
GTGATGGA	-0.0248
TCCGTGCA	0.252
ACTACTCA	0.164

Sequence	PBM E-score
ACGTACGT	-0.147
CGGCCTAG	-0.315
CTAAAACC	-0.0394
ACCGAGCG	-0.0249
ACAGCACG	0.0231
CGCGTCGA	-0.0126
AAAGGCAC	-0.0268
AGTACAAG	-0.0112
AACACCAA	0.0507
ATCATTTC	0.225
ATACAACG	0.197
GTTCACGA	0.0274
GGATGTAC	0.0606
AAGATTCT	-0.102
CAGTTCTA	-0.125
CTCTACAG	-0.113
ATAGCTAA	-0.0492
ATGGCTAA	0.0596
AAACGCGG	0.238
ACTAGGAA	0.072
ATCTCCCG	-0.0416
CGTTAGTC	0.0993
AATTAGGT	0.159
CGGACGTA	0.104
ATCGAATC	0.0591

Sequence	PBM E-score
GCAAATGC	-0.122
CCGCCGAC	-0.1
ATTAAGCC	0.141
CTCTGAAA	-0.1
AGCGACCA	0.0107
CCGCCCGG	0.113
GAGCAGTA	0.0211
CATCTATA	0.267
AATTATGC	0.208
GCCTCAGC	-0.251
TGAGTCAA	0.11
AGCCAGCA	-0.215
CTCGTGTC	-0.212
CTACTTTA	0.0985
AACGGTAC	0.106
AATGATCA	0.0374
GCATTCGC	0.00851
CGAAGGTC	0.0331
ATCGGGGG	-0.081
ATTGGCTC	0.0791
ACGCCCTC	-0.102
GCGAAAGA	-0.0511
AGCGAAAT	0.0618
GAATACAA	0.252
CGTTGCGC	-0.153

Sequence	PBM E-score
GACAAAAA	0.27
ATTCACTC	0.0156
AAAACCAA	0.0706
ATGAATTA	0.16
CCTACGTC	-0.139
CATTAACC	0.148
ATCAGTCG	0.135
ACTGTTCT	0.135
CATTCCCG	-0.0507
ATCTATGG	-0.226
AATGGGTG	-0.0472
GGGGAGTA	-0.00179
ATACTTGG	-0.1
ACGAGACA	-0.108
AAAGGCCG	-0.0675
GTGTCAAA	0.0945
ATTTCAAG	0.164
GGCAGTAC	-0.117
CCATTGGG	-0.335
GCGCATCC	-0.137
GTATACAA	0.179
GCCGGTAC	-0.243
AAGAGAGA	0.0152
CAGTACAA	-0.0297
AAAAGCTT	0.0177

Sequence	PBM E-score
ACATGTCC	0.177
AATCTCAC	0.0356
GTACGGGA	-0.0895
CAGTGATA	0.0506
CATCCTCA	-0.0935
AATTCCAG	0.0606
AATTTAAG	0.218
CTGTCAAC	-0.102
GAACTGTA	0.237
CTGCTCAC	-0.196
CAAATAGG	-0.0921
GGCATCAA	-0.177
CCATCACG	-0.0075
AGACTTGG	-0.181
ACACGACC	-0.159
GTAGTGCA	0.0589
ATAGTTCC	0.145
AACTAACT	0.175
CCGGCCTC	-0.0332
CATCTCGA	-0.0582
GCCGGTAA	0.121
TCAAAAGA	0.0683
CAAATTCG	0.0687
GCAGAACC	-0.274
ACCTGCGA	-0.131

Sequence	PBM E-score
TAGCTCGA	0.00227
AATTTGTA	0.138
CCTTCTGC	-0.233
AGGAAACA	0.0247
ACCAACGC	0.014
AGGATAAA	0.143
AATTCGCG	-0.00818
ATTGTTAG	0.187
GTATTCTA	0.101
CTGATGGC	-0.0413
AATCAGCA	0.115
ACAACATA	0.1
GACGACCA	-0.0786
CCTGCCCC	-0.331
CCACTTAG	-0.148
AACGCTCA	0.0257
CTATTATC	0.143
CTCTAAGA	-0.0515
GACTCAAA	0.0112
